Experimental data published in PubChem BioAssay AID894 (National Center for Advancing Translational Sciences (NCATS), 2007).
“And” between values parts separate entries of the source, which are not always exact repeats. Equal values may be shown once. About 6,500 (4.3%) of roughly 150,000 compounds were called active. This list was built around the results that the source calls inconclusive (neither active nor inactive); the mix of calls is not that of the screen. The call rests on the fitted dose curve; in most records, active means well fitted inhibition curve with a large enough effect (not every such curve was filed as active); inconclusive means small, poorly fitted or top-dose-only effect, or another doubt; inactive means no such curve, though single readings can be large or run the other way. A potency beside an inconclusive call is a rough fit, not a confirmed value.

Target: 15-hydroxyprostaglandin dehydrogenase [NAD(+)] (Homo sapiens) (UniProt P15428)
UniProt P15428, sequence (P15428 whole entry, looked up): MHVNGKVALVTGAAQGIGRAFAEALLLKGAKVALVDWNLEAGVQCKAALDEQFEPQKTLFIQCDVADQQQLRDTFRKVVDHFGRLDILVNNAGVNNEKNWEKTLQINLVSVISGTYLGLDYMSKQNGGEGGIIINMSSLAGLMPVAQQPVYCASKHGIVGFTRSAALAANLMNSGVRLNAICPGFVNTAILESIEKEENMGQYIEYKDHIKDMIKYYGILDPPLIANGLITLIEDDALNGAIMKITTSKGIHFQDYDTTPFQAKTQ
Assay: qHTS Assay for Inhibitors of HPGD (15-Hydroxyprostaglandin Dehydrogenase)
Settings: purified HPGD, NADH fluorescence kinetic, PGE2 substrate; activity change, negative = inhibition: active compounds read low
In short: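 NADH formation kinetics: reaction with 30 uM PGE2 and 1 mM NAD+ (final), 20 nM enzyme, Tris-HCl pH 8 with Tween 20, after 15 min compound preincubation at room temperature. Fluorescence change, last versus first of five reads.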
On the % scale 0 is the no-effect control and ±100 the full control effect; potency means the concentration at half of the fitted maximal effect; tags describe the fitted curve by direction and shape.

Row | Compound | Potency | activity change, negative = inhibition
1 | Nc1ccccc1C#Cc1ccccc1 | inconclusive: 20 µM [inhibitor, partial curve] and inconclusive: 28.2 µM [inhibitor, single point] | 
2 | COc1ccc(CNc2cc(C)nc3ncnn23)c(OC)c1 | active: 31.6 µM | 
3 | CCN(CC)c1ccc(/C=N/n2nnnc2N)c(O)c1 | inconclusive: 28.2 µM [inhibitor, partial curve] | 
4 | Cc1sc2nc(C3CC3)nc(SCC(=O)N3CCc4ccccc4C3)c2c1C | inconclusive: 22.4 µM [inhibitor, partial curve, poor fit] | 
5 | O=C(O)C1CCCN(S(=O)(=O)c2ccc(Br)cc2)C1 (stereo unspecified) |  | inactive: 0.194%
6 | CC(C)CNC(=O)c1ccc(NC(=O)c2cccs2)cc1 | active: 17.8 µM | 
7 | Cc1ccc(C)c(S(=O)(=O)N2CCC(c3nc4c(nnn4Cc4ccc(F)cc4)c(=O)[nH]3)CC2)c1 | active: 12.6 µM | 
8 | COc1ccc2c(c1)c(=O)oc1c(C)c(OCC(=O)N3CCc4ccccc4C3)ccc12 | inconclusive: 28.2 µM [inhibitor, partial curve] | 
9 | CC#N |  | inactive: -8.99%
10 | Clc1ccc(OCCSc2ncccn2)c2ccccc12 | inconclusive: 14.1 µM [inhibitor, partial curve] | 
11 | COC(=O)c1ccccc1NC(=O)/C=C/c1ccco1 |  | inactive: -24.3%
12 | Cc1ccc2nc3c(cc2c1)c(NC(=O)c1ccccn1)nn3CC(C)C | inconclusive: 31.6 µM [inhibitor, partial curve] | 
13 | O=C(c1cc(-c2cccc(O)c2)on1)N1CCc2ccccc2C1 | active: 25.1 µM | 
14 | O=c1c(-c2ccccc2)nc2cnc(N3CCNCC3)nc2n1Cc1cccs1 | inconclusive: 28.2 µM [inhibitor, partial curve] | 
15 | N#C/C(=C/c1ccccc1[N+](=O)[O-])C(=O)NCc1ccco1 | inconclusive: 31.6 µM [inhibitor, single point] | 
16 | COc1cccc(C2=NOC(C(=O)NCc3ccc(F)cc3)C2)c1 (stereo unspecified) |  | inactive: -0.339%
17 | COc1ccc(OC(C)C(=O)N2CCC(C)CC2)cc1 (stereo unspecified) | inconclusive: 28.2 µM [inhibitor, single point] | 
18 | O=C(c1cc([N+](=O)[O-])ccc1Cl)N1c2ccccc2Sc2ccccc21 |  | inactive: -8.69%
19 | COc1ccc(S(=O)(=O)N(C)c2ccc(C(=O)N3CCOCC3)cc2)cc1 | active: 6.31 µM | 
20 | O=C(Nc1nnc(-c2ccccc2F)s1)C1CCN(S(=O)(=O)c2ccc(Cl)cc2)CC1 | inconclusive: 25.1 µM [inhibitor, single point] | 
21 | CCN1CCN(Cc2c(O)c(Cl)cc3c(C)cc(=O)oc23)CC1 | inconclusive: 14.1 µM [inhibitor, partial curve] | 
22 | NC1=C(c2ccc(F)cc2)C(=O)CS1 | active: 6.31 µM | 
23 | CC(C)c1nc(N2CCOCC2)c(C#N)c2c1CCCC2 | inconclusive: 31.6 µM [inhibitor, partial curve] | 
24 | Cc1ccc(S(=O)(=O)c2c(N)n(/N=C/c3ccco3)c3nc4ccccc4nc23)cc1C | inconclusive: 14.1 µM [inhibitor, partial curve] | 

Row | Compound | Potency | activity change, negative = inhibition
25 | CCOC(=O)c1ccccc1NC(=O)c1cc2sccc2n1C | inconclusive: 25.1 µM [inhibitor, partial curve] | 
26 | COc1cc(C2C(C(=O)N3CCOCC3)=C(C)NC3=C2C(=O)CCC3)ccc1OC(C)=O (stereo unspecified) | inconclusive: 35.5 µM [inhibitor, partial curve] | 
27 | CCN(/N=C/c1ccc(Cl)cc1)c1cc(=O)n(C)c(=O)[nH]1 | active: 28.2 µM | 
28 | COc1ccc(C2=NN3C(C2)c2ccccc2OC32C(=O)N(C)c3ccccc32)cc1 (stereo unspecified) | inconclusive: 22.4 µM [inhibitor, single point] | 
29 | O=C(Oc1cc2oc(=O)c3c(c2cc1Cl)CCCC3)c1cccs1 | inconclusive: 25.1 µM [inhibitor, partial curve] | 
30 | O=C(CSc1nnc(COc2cccc3ccccc23)o1)N1c2ccccc2CCc2ccccc21 |  | inactive: -1.9%
31 | CC1(C)CC2CC(C)(CN2C(=O)Cc2ccccc2)C1 (stereo unspecified) | inconclusive: 25.1 µM [inhibitor, single point] | 
32 | O=C(CSc1ncnc2ccccc12)NCc1ccco1 | active: 15.8 µM | 
33 | CC1CCCC(C)N1C(=O)Cn1c(SCC(=O)Nc2ccc3c(c2)OCO3)nc2ccccc21 (stereo unspecified) |  | inactive: -15.2%
34 | Nc1nnc(SCC(=O)c2ccc3ccccc3c2)s1 | active: 22.4 µM | 
35 | CC(=O)Oc1ccc(-c2cccc(C(=O)NCC(=O)O)c2)cc1 | inconclusive: 28.2 µM [inhibitor, partial curve] | 
36 | O=c1cc(-c2ccccc2)c2ccccc2[nH]1 | inconclusive: 22.4 µM [inhibitor, partial curve] | 
37 | Cc1ccc(S(=O)(=O)N(CC(=O)N/N=C/c2cccc3c2OCCO3)c2ccccc2F)cc1 | inconclusive: 28.2 µM [inhibitor, partial curve] | 
38 | Cc1cc(C)nc(NS(=O)(=O)c2ccc(NC(=O)c3cccs3)cc2)n1 |  | inactive: -17.3%
39 | Cc1ccc(C(=O)N/N=C/c2ccc([N+](=O)[O-])s2)cc1 | inconclusive: 39.8 µM [inhibitor, single point] | 
40 | Cc1[nH]c2c(Br)cccc2c1[C@H]1[C@@H](CC#N)C1(C)C | inconclusive: 11.2 µM [inhibitor, partial curve] | 
41 | CCCCOc1ccc(C(=O)N/C(=C\c2ccc([N+](=O)[O-])cc2)C(=O)OCc2ccco2)cc1 |  | inactive: -2.3%
42 | O=C1CC2(CCCC2)CC(=O)N1CCNC[C@H]1COc2ccccc2O1 |  | inactive: -0.762%
43 | Cc1cc(N2CCOCC2)c(F)cc1C(=O)c1ccccc1 | inconclusive: 20 µM [inhibitor, partial curve] | 
44 | CC1(C)Cc2c(sc3c2C2=NCCN2C=N3)CS1 |  | inactive: -12.9%
45 | COC(=O)[C@@]1(Cc2ccc(OC)cc2)[C@H]2c3cc(C(=O)N4CCCC4)n(Cc4nc5ccccc5[nH]4)c3C[C@H]2CN1C(=O)c1ccccc1 | inconclusive: 31.6 µM [inhibitor, single point] | 
46 | CCCCn1c(SCc2cccc([N+](=O)[O-])c2)nc2ccsc2c1=O |  | inactive: -7.09%
47 | Cc1ccc(C(NC(=O)C2CCCCC2)c2c(O)ccc3ccccc23)cc1 (stereo unspecified) | inconclusive: 39.8 µM [inhibitor, single point] | 
48 | CCOc1ncccc1C(=O)OCc1ccc(C(=O)OC)cc1 |  | inactive: -14.1%

Row | Compound | Potency | activity change, negative = inhibition
49 | CC(=O)OCC(=O)Nc1ccc(C(C)=O)cc1 |  | inactive: -7.38%
50 | COc1ccc(/C=C/C2=NC(=C\N(C)C)/C(=O)O2)cc1 | inconclusive: 20 µM [inhibitor, partial curve] | 
51 | CCOc1ccc2c(c1)c1nnc(SCC3CCCO3)nc1n2C (stereo unspecified) | inconclusive: 20 µM [inhibitor, partial curve] | 
52 | COc1ccc2[nH]cc(CCNc3ncnc4ccc(-c5ccc(C(=O)N(C)C)cc5)cc34)c2c1 | inconclusive: 15.8 µM [inhibitor, partial curve] | 
53 | O=C(CCN1CCN(c2ccc(Cl)cc2)CC1)Nc1ccccc1F | inconclusive: 39.8 µM [inhibitor, single point] | 
54 | N#Cc1cccc(-c2nc(Nc3ccccc3)c3ccccc3n2)c1 |  | inactive: -14.3%
55 | O=C(Nc1nc2nc(-c3ccccc3)cc(-c3ccccc3)n2n1)c1ccco1 | inconclusive: 25.1 µM [inhibitor, partial curve] | 
56 | Nn1cnnc1SC1CCCCC1NS(=O)(=O)c1ccccc1 (stereo unspecified) |  | inactive: -5.94%
57 | Cc1ccc(CCNC(=O)c2coc3nc4ccccc4nc23)cc1 | inconclusive: 28.2 µM [inhibitor, single point] | 
58 | CCOC(=O)C(=O)Nc1ccc(S(=O)(=O)Nc2ncccn2)cc1 | inconclusive: 39.8 µM [inhibitor, single point] | 
59 | COc1cccc(NC(=S)NCc2ccco2)c1 | active: 11.2 µM | 
60 | O=C1CC(N2CCC(c3nc4ccccc4o3)CC2)C(=O)N1c1ccc(Cl)c(C(F)(F)F)c1 (stereo unspecified) | active: 20 µM | 
61 | COc1ccc2oc(=O)c(C(=O)NCC3CCCO3)cc2c1 (stereo unspecified) | inconclusive: 31.6 µM [inhibitor, partial curve] | 
62 | CC1(C)Cc2ccccc2C2CC(O)C(=O)N21 (stereo unspecified) | inconclusive: 39.8 µM [inhibitor, single point] | 
63 | Cc1ccc(NC(=O)c2cc(-c3ccc(C)o3)nc3ccccc23)nc1 | inconclusive: 28.2 µM [inhibitor, partial curve] | 
64 | N#Cc1cc2c(=O)n3ccccc3nc2n(CCCn2ccnc2)c1=N | inconclusive: 31.6 µM [inhibitor, partial curve] | 
65 | COc1cc(S(=O)(=O)NC2CCCCC2)ccc1F | inconclusive: 28.2 µM [inhibitor, partial curve] | 
66 | O=C(Nc1ccc2c(c1)C(=O)N(C1CCCCC1)C2=O)C1CCCO1 (stereo unspecified) | inconclusive: 28.2 µM [inhibitor, partial curve] | 
67 | CCOC(=O)N1CCN(C(=O)c2ccc(CN(c3ccccc3)S(C)(=O)=O)cc2)CC1 |  | inactive: -5.01%
68 | C/C(=N\NC(=O)CC1(C)OCCO1)c1cccs1 |  | inactive: -3.97%
69 | CCn1ncc(CNC(=O)C2(C)CC2(Cl)Cl)c1C (stereo unspecified) | active: 11.2 µM | 
70 | Cc1ccn2cc(-c3cccc(NC(=O)c4ccccc4)c3)nc2c1 | inconclusive: 25.1 µM [inhibitor, partial curve] | 
71 | Cc1ccc(C(=O)Nc2ncc(Cc3ccc(F)cc3)s2)o1 | inconclusive: 35.5 µM [inhibitor, partial curve] | 
